# Measurements: the supplement of paper PMC3334620
# The full ranking holds about 33,000 sequences; the median of “E-score (-0.5 to 0.5)” is about -0.04, and the highest 2% start at about 0.36. Some of the results follow.
# Biological target: T1, Hmlalpha2 (UniProt P0CY09)
# T1 sequence: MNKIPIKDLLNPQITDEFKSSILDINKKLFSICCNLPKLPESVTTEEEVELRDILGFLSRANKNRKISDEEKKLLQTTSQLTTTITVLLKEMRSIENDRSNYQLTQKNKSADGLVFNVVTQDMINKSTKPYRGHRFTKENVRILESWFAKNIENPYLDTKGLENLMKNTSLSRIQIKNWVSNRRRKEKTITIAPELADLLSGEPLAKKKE
# Assay: PBM E-score (8-mer binding enrichment) (E-score (-0.5 to 0.5)); higher = stronger / more preferred TF binding; most listed sequences are background and not binding sites
# Conditions: protein concentration: 200 nM; construct: GST-full length
# How it was run: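 E-scores (a modified Wilcoxon-Mann-Whitney statistic) were assigned by the Universal PBM Analysis Suite to every ungapped eight-base word pooled with its reverse complement. The input came from universal all-10-mer Agilent arrays made double-stranded by primer extension and probed with GST-tagged yeast transcription factors at about 100-200 nM. Fluorescent anti-GST detected bound protein, and masliner normalised the scans.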
row,Sequence,PBM E-score
1,ACTGCCGG,-0.241
2,AGTGCTTC,-0.156
3,AAAACTTC,0.102
4,GGGATGAA,-0.274
5,ACTACTGA,-0.00815
6,GAAGGTGA,-0.113
7,AGCATTAC,0.254
8,CTCGGACA,-0.0617
9,CTCTGCCA,-0.219
10,GCATACCC,-0.132
11,CAAACGTC,-0.178
12,CCTAACTC,-0.212
13,GCTCGTTA,0.11
14,ATATTAAC,0.277
15,ATAACAAC,0.236
16,CGTAGGCA,-0.112
17,AATGGCTC,0.00118
18,CCACAATA,-0.16
19,CTAATTGA,0.112
20,GCAATCGC,-0.233
21,ATCTGATA,-0.205
22,ATTGTCTA,0.207
23,GCGGTAAA,0.258
24,CCCGCCCG,-0.103
25,ACCTCCCC,-0.162

row,Sequence,PBM E-score
1,ACGCTCCA,0.0165
2,ATACCTCC,-0.216
3,AACATACC,0.359
4,TCTCCGAA,0.0132
5,AGATTGAA,0.173
6,ACAGGATA,0.134
7,TCATACCA,0.0697
8,CGCGGTAG,0.0231
9,CCTGACCA,-0.0469
10,GCTACAGA,-0.0697
11,CAGACTTA,-0.0185
12,ATCTCAAA,0.0591
13,ACACTGAA,0.204
14,GCGACAAA,0.0565
15,CATGGGAG,-0.101
16,CAAGACTA,-0.0365
17,GACTCCAA,-0.223
18,TGTGGCAA,0.0206
19,GAACTGCA,-0.0547
20,GATATCAA,0.039
21,AGCGCTCG,-0.138
22,ACTCTGGG,-0.0823
23,CCTCGCAC,-0.0685
24,TCTGACCA,0.0821
25,CAGGCCGA,-0.0678

row,Sequence,PBM E-score
1,CCCTCGGA,-0.122
2,ACAACGAT,0.136
3,CGACCCAG,-0.209
4,CTTCTCAC,-0.193
5,AGCCGGCG,-0.235
6,ACACGACA,0.412
7,GTAGAGCA,0.117
8,TCCGTAAA,0.126
9,AAATCGAC,0.158
10,TCGATGCA,-0.0973
11,AATTGGGT,0.134
12,GAGAGATC,-0.158
13,CGTAGCAC,0.0715
14,AAACGCTC,-0.144
15,CTGACGTC,0.0227
16,ATCGCCCA,-0.267
17,CTTCGGAC,0.085
18,AGACAAGC,-0.0459
19,TGATACCA,-0.00425
20,GCGGCGAC,-0.168
21,CCACCGGA,-0.0874
22,ACAACCAC,0.0618
23,ATCATTGC,-0.194
24,ATGGATTA,-0.106
25,ACATGGCT,0.33

row,Sequence,PBM E-score
1,CCTCATAA,-0.00147
2,AGTTGGTG,-0.0628
3,AATCGTCC,0.0645
4,CCTGTCCA,-0.321
5,CCAGTGAG,-0.189
6,CTAACATC,0.205
7,ACAAGGCT,0.145
8,TACGTCGA,0.0708
9,CCACCGCG,-0.186
10,TACTCCGA,-0.0648
11,CTGGGATC,-0.141
12,ACGTCCTG,-0.105
13,CAGAATAG,-0.0888
14,GCCCGGAA,-0.131
15,CCAGCCTC,-0.149
16,GCGTTGGA,0.115
17,ATGAGCCC,-0.13
18,CTCATTCA,-0.126
19,CATTATAC,0.292
20,GAGCCTGC,-0.196
21,AAACGGAC,-0.0539
22,CTTAAGAA,0.0585
23,AAGGCGCC,-0.118
24,TCATGTCA,0.359
25,CCAAGTCC,-0.309

row,Sequence,PBM E-score
1,TAAAGCCA,0.107
2,CCGGGGGA,-0.289
3,AGACAGGA,0.0355
4,GAGGCATC,-0.268
5,ATCGCTGC,-0.136
6,ATGCAATG,0.0723
7,GAAACGCC,-0.0175
8,AGTTTCGG,-0.031
9,TGCAGCAA,-0.0391
10,GGGGTTTA,-0.0666
11,AAGGGGCA,-0.215
12,ACCCTACT,-0.0148
13,GCACAACC,-0.138
14,CAAATCTC,-0.132
15,CTGATCTC,-0.211
16,AAATGGGT,0.0412
17,ATTATGGA,-0.0458
18,CAGTTGCC,-0.0299
19,CAAGCTGA,0.0482
20,GATGTTGA,0.276
21,CCCTGTGC,-0.0862
22,CTTCCTTA,0.047
23,AGGATGGC,-0.123
24,CAGAGTGA,-0.0354
25,ACACTCCG,0.00523

row,Sequence,PBM E-score
1,AACTCGAT,0.133
2,AAGACCAC,-0.0544
3,CTCATTGA,-0.0946
4,CAGTGTGC,-0.145
5,ATAAGATA,0.12
6,CGACAGTC,-0.2
7,AGTATAAG,0.00671
8,AGCAGCTG,-0.0747
9,CGAGAGTA,0.0592
10,AAACCGTT,0.067
11,GTAGGCGA,-0.0868
12,GTAGCCAA,-0.121
13,CGCTGGCC,-0.324
14,CCAGAGAG,-0.382
15,AATCACCG,-0.00358
16,CCGCTATA,-0.0834
17,TGCCGAAA,0.122
18,AATAGGAA,0.0134
19,AGGCTATC,-0.0617
20,ACGTGGGA,-0.143
21,GTACTCAA,0.0572
22,AATTCGAT,0.0905
23,AGAGGTTA,0.0615
24,ACAACTCA,0.194
25,CCAGACGG,-0.274

row,Sequence,PBM E-score
1,CGATGCCC,-0.351
2,CGGTGCGA,-0.141
3,AATTGGAA,-0.0256
4,ATTGGAGA,-0.0969
5,CCCCTGCC,-0.248
6,AACAGGGT,-0.088
7,GAATACGA,0.241
8,TCACATGA,0.226
9,CACGAGTA,0.239
10,AACTACTG,-0.0925
11,GGGGACAA,-0.0632
12,AGTTGCGC,-0.00931
13,ATAGACAA,0.136
14,ATGGATAG,-0.242
15,GGGGGTAA,-0.193
16,AAGTTAGT,0.155
17,AAGTAACG,0.0658
18,GGGGGGGA,-0.471
19,ACAGGGTA,0.0548
20,GATGAGGA,-0.236
21,GGATTGAA,-0.0571
22,GTATGAAA,0.226
